{
  "source": "the supplement of paper PMC8792480",
  "note": "Where a name gives a salt, the structure may show the parent alone. This is one part of the list. Single values are uncertain, as repeats are few or missing.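 Also: surface PD-L1 on NSCLC cells stained with a PE-labelled anti-human PD-L1 antibody before flow cytometry, screening a library of roughly two hundred mostly kinase and epigenetic inhibitors.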",
  "data": [
    {"system": "A549", "assay": "cell-surface PD-L1 MFI ratio relative to radiation alone (isotype-subtracted); higher = higher PD-L1 surface expression", "conditions": "inducer: radiation 8 Gy; 10 µM; 24 h", "experimental": "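A549 and H460 NSCLC cells were treated with each library drug at 10 uM, then with radiation (8 Gy) or cisplatin (4 uM), and incubated for 24 h. Cell-surface PD-L1 was measured by flow cytometry as an MFI ratio: (MFI drug+inducer - MFI isotype)/(MFI inducer alone - MFI isotype). Hits were defined as ratio < 0.75.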", "values": [
      {"compound": "Cc1ccc(-c2cc(C(F)(F)F)nn2-c2ccc(S(N)(=O)=O)cc2)cc1", "note": "[Celecoxib]", "cell-surface PD-L1 MFI ratio": "inactive: 1.32"},
      {"compound": "CCN(c1cc(-c2ccc(CN3CCOCC3)cc2)cc(C(=O)NCc2c(C)cc(C)[nH]c2=O)c1C)C1CCOCC1", "note": "[Tazemetostat (EPZ-6438)]", "cell-surface PD-L1 MFI ratio": "inactive: 0.818"},
      {"compound": "C[C@]1(c2nc3c(C(N)=O)cccc3[nH]2)CCCN1", "note": "[Veliparib (ABT-888)]", "cell-surface PD-L1 MFI ratio": "active: 0.61"},
      {"compound": "COc1cc(Nc2ncc3c(n2)-c2ccc(Cl)cc2C(c2c(F)cccc2OC)=NC3)ccc1C(=O)O", "note": "[Alisertib (MLN8237)]", "cell-surface PD-L1 MFI ratio": "inactive: 0.83"},
      {"compound": "C[C@@H](Oc1ccc2[nH]nc(/C=C/c3cnn(CCO)c3)c2c1)c1c(Cl)cncc1Cl", "cell-surface PD-L1 MFI ratio": "inactive: 1.43"},
      {"compound": "O=C(c1cc(Cc2n[nH]c(=O)c3ccccc23)ccc1F)N1CCN(C(=O)C2CC2)CC1", "note": "[Olaparib]", "cell-surface PD-L1 MFI ratio": "inactive: 1.25"},
      {"compound": "c1ccc2c(-c3cnn4cc(-c5ccc(N6CCNCC6)cc5)cnc34)ccnc2c1", "cell-surface PD-L1 MFI ratio": "inactive: 0.785"},
      {"compound": "CCOc1cc2ncc(C#N)c(Nc3ccc(OCc4ccccn4)c(Cl)c3)c2cc1NC(=O)/C=C/CN(C)C", "note": "[Neratinib (HKI-272)]", "cell-surface PD-L1 MFI ratio": "inactive: 1.1"},
      {"compound": "C[C@@H]1COCCN1c1cc(C2([S@](C)(=N)=O)CC2)nc(-c2cc[nH]c3nccc2-3)n1", "cell-surface PD-L1 MFI ratio": "active: 0.74"},
      {"compound": "Nc1ncn([C@H]2C[C@H](O)[C@@H](CO)O2)c(=O)n1", "note": "[Decitabine]", "cell-surface PD-L1 MFI ratio": "active: 0.685"},
      {"compound": "NC(=O)c1ncn([C@@H]2O[C@H](CO)[C@@H](O)[C@H]2O)c1N", "note": "[AICAR (Acadesine)]", "cell-surface PD-L1 MFI ratio": "inactive: 0.937"},
      {"compound": "COCCOc1nc(-c2ccc(Cl)c(Cl)c2)n(-c2ccc(NC(=O)CCl)cc2)n1", "note": "[MI-2 (MALT1 inhibitor)]", "cell-surface PD-L1 MFI ratio": "inactive: 1.1"},
      {"compound": "Clc1ccc(NN=C(c2ccccc2)c2ccccn2)nc1", "cell-surface PD-L1 MFI ratio": "inactive: 1.55"},
      {"compound": "COc1ncc(-c2ccc3nccc(-c4ccnnc4)c3c2)cc1NS(=O)(=O)c1ccc(F)cc1F", "cell-surface PD-L1 MFI ratio": "inactive: 1.13"},
      {"compound": "O=C(/C=C\\n1cnc(-c2cc(C(F)(F)F)cc(C(F)(F)F)c2)n1)NNc1cnccn1", "note": "[Selinexor (KPT-330)]", "cell-surface PD-L1 MFI ratio": "inactive: 1.41"},
      {"compound": "Cc1cc(Nc2cc(N3CCN(C)CC3)nc(Sc3ccc(NC(=O)C4CC4)cc3)n2)n[nH]1", "note": "[Tozasertib (VX-680, MK-0457)]", "cell-surface PD-L1 MFI ratio": "inactive: 1.17"},
      {"compound": "CCS(=O)(=O)N1CC(CC#N)(n2cc(-c3ncnc4[nH]ccc34)cn2)C1", "cell-surface PD-L1 MFI ratio": "inactive: 0.79"},
      {"compound": "COc1cc2nc(N3CCCC3)nc(NCCCCCN3CCCC3)c2cc1OC", "cell-surface PD-L1 MFI ratio": "inactive: 1"},
      {"compound": "CN1CCN(CCOc2cc(OC3CCOCC3)c3c(Nc4c(Cl)ccc5c4OCO5)ncnc3c2)CC1", "note": "[Saracatinib (AZD0530)]", "cell-surface PD-L1 MFI ratio": "inactive: 0.793"},
      {"compound": "O=C1[C@H](Cc2ccc(O)cc2)N2C(=O)CCN(C(=O)NCc3ccccc3)[C@H]2CN1Cc1cccc2ccccc12", "cell-surface PD-L1 MFI ratio": "inactive: 1.17"},
      {"compound": "CN1CCN(Cc2ccc(-c3cnc4[nH]cc(-c5ccc6[nH]ccc6c5)c4c3)cc2)CC1", "cell-surface PD-L1 MFI ratio": "inactive: 1.16"},
      {"compound": "CC(C)N1CCN(Cc2cnc(-c3cc(-c4cccc5[nH]ccc45)cc4[nH]ncc34)o2)CC1", "cell-surface PD-L1 MFI ratio": "inactive: 0.794"},
      {"compound": "O=C(N/N=C/c1ccc([N+](=O)[O-])o1)c1ccc(O)cc1", "note": "[Nifuroxazide]", "cell-surface PD-L1 MFI ratio": "inactive: 0.809"},
      {"compound": "CC1(C)C(=O)N(CCN2CCC(C(=O)c3ccc(F)cc3)CC2)c2ccccc21", "cell-surface PD-L1 MFI ratio": "inactive: 1.12"},
      {"compound": "Cc1nc(-c2cn3c(n2)-c2ccc(-c4cnn(C(C)(C)C(N)=O)c4)cc2OCC3)n(C(C)C)n1", "note": "[Taselisib (GDC 0032)]", "cell-surface PD-L1 MFI ratio": "inactive: 0.833"},
      {"compound": "C/C(=C\\C(=O)Nc1ccccc1C(=O)O)c1ccc2ccccc2c1", "cell-surface PD-L1 MFI ratio": "inactive: 1.08"},
      {"compound": "Oc1nc(-c2ccc(C(F)(F)F)cc2)nc2c1CSCC2", "cell-surface PD-L1 MFI ratio": "inactive: 1.09"},
      {"compound": "CC(C)(C)C[C@@H]1N[C@@H](C(=O)N[C@H]2CC[C@H](O)CC2)[C@H](c2cccc(Cl)c2F)[C@]12C(=O)Nc1cc(Cl)ccc12", "cell-surface PD-L1 MFI ratio": "inactive: 0.843"},
      {"compound": "Nc1ccc(C(=O)Nc2cccc(-c3nc(N4CCOCC4)c4oc5ncccc5c4n3)c2)cn1", "cell-surface PD-L1 MFI ratio": "active: 0.549"},
      {"compound": "CC(C)c1c(C(=O)Nc2ccccc2)c(-c2ccccc2)c(-c2ccc(F)cc2)n1CC[C@@H](O)C[C@@H](O)CC(=O)O", "note": "[Atorvastatin]", "cell-surface PD-L1 MFI ratio": "inactive: 0.997"},
      {"compound": "CC(=O)Oc1ccccc1C(=O)O", "note": "[Aspirin]", "cell-surface PD-L1 MFI ratio": "active: 0.654"},
      {"compound": "CNC(=O)c1ccccc1Sc1ccc2c(/C=C/c3ccccn3)n[nH]c2c1", "note": "[Axitinib]", "cell-surface PD-L1 MFI ratio": "inactive: 1.02"},
      {"compound": "CN1CCN(c2nc(C3=C(c4c[nH]c5ccccc45)C(=O)NC3=O)c3ccccc3n2)CC1", "note": "[Sotrastaurin]", "cell-surface PD-L1 MFI ratio": "inactive: 3.49"},
      {"compound": "C=CC(=O)N1CCC([C@@H]2CCNc3c(C(N)=O)c(-c4ccc(Oc5ccccc5)cc4)nn32)CC1", "note": "[Zanubrutinib]", "cell-surface PD-L1 MFI ratio": "inactive: 1.12"},
      {"compound": "Cc1nc(NC(=O)N2CCC[C@H]2C(N)=O)sc1-c1ccnc(C(C)(C)C(F)(F)F)c1", "note": "[Alpelisib (BYL719)]", "cell-surface PD-L1 MFI ratio": "active: 0.7"},
      {"compound": "C[C@H](NC(=O)c1c(N)nn2cccnc12)c1cc2cccc(C#Cc3cnn(C)c3)c2c(=O)n1-c1ccccc1", "cell-surface PD-L1 MFI ratio": "active: 0.73"},
      {"compound": "CC(C)(C)Cn1c(N)nc2ccc(-c3[nH]c(C(C)(C)C)nc3-c3ccc(F)cc3)nc21", "cell-surface PD-L1 MFI ratio": "inactive: 1.19"},
      {"compound": "CO[C@H]1C[C@@H]2CC[C@@H](C)[C@@](O)(O2)C(=O)C(=O)N2CCCC[C@H]2C(=O)O[C@H]([C@H](C)C[C@@H]2CC[C@@H](O)[C@H](OC)C2)CC(=O)[C@H](C)/C=C(\\C)[C@@H](O)[C@@H](OC)C(=O)[C@H](C)C[C@H](C)/C=C/C=C/C=C/1C", "note": "[Rapamycin (Sirolimus)]", "cell-surface PD-L1 MFI ratio": "inactive: 1.14"},
      {"compound": "Cc1cc(O)c(-c2ccc([C@@H](C)CN)cc2)c2c1[nH]c(=O)c1sccc12", "note": "[OTS514 hydrochloride]", "cell-surface PD-L1 MFI ratio": "inactive: 1.24"},
      {"compound": "NC1(c2ccc(-c3nc4ccn5c(=O)[nH]nc5c4cc3-c3ccccc3)cc2)CCC1", "cell-surface PD-L1 MFI ratio": "inactive: 1.03"}
    ]}
  ]
}
